# Experimental data reported in the supplement of paper PMC3334620.
# Over roughly 33,000 sequences, “E-score (-0.5 to 0.5)” has its median near -0.035; the highest 2% begin near 0.34. This is one part of the list.
# Target: T1, Mot3 (UniProt P54785)
# T1 sequence: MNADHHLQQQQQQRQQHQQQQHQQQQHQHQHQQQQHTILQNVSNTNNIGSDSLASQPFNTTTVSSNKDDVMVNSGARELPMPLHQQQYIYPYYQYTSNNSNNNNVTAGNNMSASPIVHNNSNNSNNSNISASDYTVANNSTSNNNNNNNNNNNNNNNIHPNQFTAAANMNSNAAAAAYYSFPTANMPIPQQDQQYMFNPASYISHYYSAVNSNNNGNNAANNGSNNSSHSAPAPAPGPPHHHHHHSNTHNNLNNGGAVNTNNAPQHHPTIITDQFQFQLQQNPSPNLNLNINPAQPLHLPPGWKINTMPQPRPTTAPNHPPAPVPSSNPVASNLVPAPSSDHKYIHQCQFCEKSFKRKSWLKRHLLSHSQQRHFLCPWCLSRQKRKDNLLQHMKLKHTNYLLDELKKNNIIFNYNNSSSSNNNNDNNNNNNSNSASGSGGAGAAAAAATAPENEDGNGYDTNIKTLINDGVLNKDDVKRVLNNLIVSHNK
# Experiment: PBM E-score (8-mer binding enrichment) (E-score (-0.5 to 0.5)); higher = stronger / more preferred TF binding; most listed sequences are background and not binding sites
# Conditions: protein concentration: 200 nM; construct: GST-full length
# Outline: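 Universal all-10-mer Agilent arrays, fresh or stripped once, were converted to double-stranded form by primer extension. GST-tagged yeast transcription factors from PURExpress in vitro transcription/translation, full-length or DNA-binding domain only, were applied at about 100-200 nM and detected with fluorescent anti-GST. After masliner normalisation, the Universal PBM Analysis Suite scored each ungapped eight-base word together with its reverse complement by E-score.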
row,Sequence,PBM E-score
1,CTACCATC,-0.12
2,AGAGCTTA,-0.126
3,ATCTCATA,-0.0395
4,CGCATTAC,0.17
5,GCTGCACC,-0.222
6,CGGACCCG,-0.308
7,ACCTCATC,-0.0389
8,CGGGCTTA,-0.182
9,CGGTTTTC,-0.134
10,ATCGACAT,0.285
11,ATGTAGGA,0.158
12,AGTATATC,-0.0374
13,AAAAGAGC,-0.0689
14,CGTAACTA,0.111
15,CGTTCGGC,-0.256
16,GCAAAACA,0.0388
17,GTCATTCA,-0.067
18,GTACGTAC,0.157
19,CCCTCGAC,-0.298
20,CGCGGGGA,0.0397
21,ACCCGTAA,-0.0263
22,AATACTAT,-0.0357
23,CGTCGGCC,-0.188
24,GACTTGGC,-0.292
25,GAGCCTTA,0.185

row,Sequence,PBM E-score
1,ATGACAAG,0.0835
2,CCCCCTCG,-0.338
3,GTCTGCTA,0.0638
4,ATAGAATA,0.148
5,AAGGAGGC,0.0693
6,CAAGACCA,-0.0228
7,ATTATGGG,-0.0982
8,CATGACGC,0.0894
9,ACTTCTGC,0.0157
10,ATCTATCA,-0.00093
11,CTGCAACA,0.0762
12,CCTGTGTA,0.357
13,AAGATATA,0.0835
14,AGGGTGTC,-0.152
15,CAGGAGAG,-0.299
16,CCAAGAGG,-0.324
17,AGAGCAAA,-0.0297
18,AGAGATAC,0.0499
19,CGCCAAGC,-0.164
20,AACAGCAA,0.0647
21,ACCTCGCA,-0.0135
22,AACCGTGA,0.0392
23,ACACACGC,0.174
24,ACTTGTTG,0.171
25,CTTACCCC,-0.299

row,Sequence,PBM E-score
1,CTCAGAAA,0.0867
2,CGGCTCTA,-0.023
3,ACCAATAT,0.0303
4,AAGGAGTG,0.037
5,ATGTACCG,0.121
6,CAGACTAA,0.0199
7,AAGAGACG,-0.115
8,AGTACGCA,0.11
9,CGGCCATA,-0.286
10,ACGCAATG,0.23
11,CAGCATAG,0.0625
12,CAGAGTCG,-0.176
13,AGGTCTTA,-0.206
14,ATGTAAAG,0.411
15,CGCCATAG,-0.062
16,ATAGCACC,-0.18
17,GAGACCTC,-0.165
18,CTCGGCGC,0.0632
19,CACGGTGA,0.0322
20,ACGAAGCG,-0.237
21,ATCGACGA,-0.231
22,CCGACTAC,-0.101
23,CACCACTG,-0.157
24,CTTGCGCC,0.00463
25,CAGGTCCA,0.0178

row,Sequence,PBM E-score
1,GTTCGTGA,-0.225
2,AAGAGGCC,-0.401
3,AGCGCCCT,-0.194
4,GTGACCGA,-0.281
5,GACCGACC,-0.126
6,GGTAGACC,-0.232
7,AGTACGTA,0.227
8,CAAAGTGG,-0.258
9,CAGCGGAG,-0.221
10,ACCTTCGC,0.0938
11,CACGAGTC,-0.164
12,CTCTAATC,-0.191
13,GACCGGAC,-0.175
14,ATATTGAA,-0.0499
15,AATCATAG,0.157
16,CAAACGAG,0.00468
17,CAACAGCA,0.145
18,ATCCCCAC,-0.158
19,CCAGGGAC,-0.205
20,ATGTCTTC,0.018
21,ACCCAAAC,0.00273
22,CTAGTGAA,-0.0434
23,AGCTGCGA,-0.252
24,GCCATTCA,-0.193
25,GCTGATGA,-0.0248

row,Sequence,PBM E-score
1,ATTCTTTG,0.14
2,ATTAAGGA,0.0441
3,CGGTGCCA,-0.377
4,CTGCGCGC,-0.0095
5,GTATTACA,0.326
6,AACTATCA,-0.0191
7,TCCGCGCA,-0.0796
8,AGATGGCA,-0.0761
9,ACCTGAGC,0.0803
10,ACTCAGAT,-0.121
11,ACGATTAA,0.197
12,ACGGCCTA,-0.0205
13,AAAGGTGG,0.0385
14,TACCTGAA,0.315
15,ACAGACCC,0.0371
16,AGTGGATG,-0.08
17,AACAAGAA,0.229
18,AACATTCG,0.0493
19,AATTACCG,0.196
20,GTTCAGAA,0.11
21,AAAGCCCG,-0.151
22,CTCCCTTC,-0.286
23,CTCTTGAC,-0.00996
24,GACGCGAC,-0.0857
25,GTTTTGTA,0.199

row,Sequence,PBM E-score
1,AGCAAGAT,-0.0696
2,AACGGGTC,-0.271
3,GGCTGACA,-0.119
4,CATTCGGC,-0.304
5,TCTATTCA,0.165
6,AGCGGTCA,-0.213
7,GCGAATCC,-0.129
8,ACCCGACT,0.131
9,AAGCCGAG,-0.27
10,CGTACATA,0.305
11,ACGAGAGG,-0.152
12,AATACAGA,0.0732
13,TACTTCTA,0.165
14,ACACTCTG,0.0611
15,ATAGCGCG,0.0578
16,ACTCTGCG,-0.00663
17,CCGCCACC,-0.179
18,GAACTATC,-0.164
19,CAGAACCG,0.101
20,CTAATCCA,-0.186
21,CAACAAAC,0.155
22,GTGCACAC,-0.162
23,TAGCCCAA,-0.212
24,ATAGTACC,0.075
25,GCATAAGA,0.0317

row,Sequence,PBM E-score
1,CTCTGGAC,-0.0406
2,CTCGGCTA,-0.0141
3,AGACTCGA,-0.309
4,ATTTGGCG,-0.121
5,GGTACCAC,-0.0231
6,AGCACTGC,-0.204
7,AAGTCAGC,-0.0785
8,ACTGTCCT,-0.176
9,AATTTCGG,-0.103
10,AAATTTTG,0.0397
11,AATACCAC,-0.0411
12,ATTGCCAG,-0.156
13,GCTTCTCC,-0.197
14,CGTCAATA,-0.0979
15,ATGCGGAC,-0.136
16,ACAGTGAC,0.0575
17,CATCGGCG,-0.324
18,TTCGCCAA,-0.118
19,CTGGTACC,-0.0972
20,CACAAGAC,-0.0417
21,AACAGGCT,0.305
22,CATATCCA,-0.0891
